Where a name gives a salt, the structure may show the parent alone. Over roughly 1,900 compounds, “cell viability of compound + 1 nM pemigatinib relative to pemigatinib-only (DMSO) wells” has its median near 0.95; the lowest 2% begin near 0.22. This is one part of the list.

The subject of the experiment is PDC-DUC18828. The experiment is described as follows: cell viability of compound + 1 nM pemigatinib relative to pemigatinib-only (DMSO) wells (fraction); PDC-DUC18828 is a patient-derived cholangiocarcinoma cell line; higher = less growth inhibition. The settings on record: first compound 1 µM; pemigatinib concentration 1 nM; 72 h. The protocol: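 Selleck Bioactive library screen in the patient-derived FGFR2 fusion-positive ICC cell line PDC-DUC18828 (500 cells/well). Each compound was tested at 1 uM with 1 nM pemigatinib, in triplicate, for 72 h. Viability was read by CellTiter-Glo and normalised to plate DMSO controls. Value is the paper's averaged normalised viability.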
In the case of `CC(=O)N1c2ccc(-c3ccc(C(=O)O)cc3)cc2[C@H](Nc2ccc(Cl)cc2)C[C@@H]1C` + CCN1C(=O)N(c2c(F)c(OC)cc(OC)c2F)Cc2cnc3[nH]c(CN4CCOCC4)cc3c21 [pemigatinib], the cell viability was found to be 0.581. `Nc1nc(F)nc2c1ncn2[C@@H]1O[C@H](CO)[C@@H](O)[C@@H]1O` [Fludarabine] + CCN1C(=O)N(c2c(F)c(OC)cc(OC)c2F)Cc2cnc3[nH]c(CN4CCOCC4)cc3c21 [pemigatinib]: the cell viability was 1.05.

In the case of `O=c1[nH]c(=O)n(C2CC(O)C(CO)O2)cc1Br` (configuration not stated) [Bromodeoxyuridine (BrdU)] + CCN1C(=O)N(c2c(F)c(OC)cc(OC)c2F)Cc2cnc3[nH]c(CN4CCOCC4)cc3c21 [pemigatinib], the cell viability was 0.961. The value for `NC(=O)N1c2ccccc2C=Cc2ccccc21` [Carbamazepine] + CCN1C(=O)N(c2c(F)c(OC)cc(OC)c2F)Cc2cnc3[nH]c(CN4CCOCC4)cc3c21 [pemigatinib] was 0.996; that for `CC(C)n1nc(-c2cc3cc(O)ccc3[nH]2)c2c(N)ncnc21` + CCN1C(=O)N(c2c(F)c(OC)cc(OC)c2F)Cc2cnc3[nH]c(CN4CCOCC4)cc3c21 [pemigatinib] was 0.315; that for `Clc1ccc(C(Cn2ccnc2)OCc2c(Cl)cccc2Cl)c(Cl)c1` (configuration not stated) [Isoconazole nitrate] + CCN1C(=O)N(c2c(F)c(OC)cc(OC)c2F)Cc2cnc3[nH]c(CN4CCOCC4)cc3c21 [pemigatinib] was 0.896. The value for `CNc1nc(Nc2cnn([C@H]3CCN(C4COC4)C[C@@H]3F)c2Cl)ncc1C(F)(F)F` + CCN1C(=O)N(c2c(F)c(OC)cc(OC)c2F)Cc2cnc3[nH]c(CN4CCOCC4)cc3c21 [pemigatinib] was 0.957; that for `NC(CO)(CO)CO` [Trometamol] + CCN1C(=O)N(c2c(F)c(OC)cc(OC)c2F)Cc2cnc3[nH]c(CN4CCOCC4)cc3c21 [pemigatinib] was 1.05. Next, `O=c1ncccn1[C@@H]1O[C@H](CO)[C@@H](O)[C@H]1O` [Zebularine] + CCN1C(=O)N(c2c(F)c(OC)cc(OC)c2F)Cc2cnc3[nH]c(CN4CCOCC4)cc3c21 [pemigatinib]: 0.981. `O=C(CCCCCCNC(=O)c1cnc(N(c2ccccc2)c2ccccc2)nc1)NO` [Rocilinostat (ACY-1215)] + CCN1C(=O)N(c2c(F)c(OC)cc(OC)c2F)Cc2cnc3[nH]c(CN4CCOCC4)cc3c21 [pemigatinib]: the cell viability is 0.903. Regarding `C[C@@H](N)[C@H]1CC[C@H](C(=O)Nc2ccncc2)CC1` + CCN1C(=O)N(c2c(F)c(OC)cc(OC)c2F)Cc2cnc3[nH]c(CN4CCOCC4)cc3c21 [pemigatinib], the cell viability worked out at 1.05. On to `O=c1cc(-c2ccc(O)cc2)oc2cc(O)cc(O)c12` [Apigenin] + CCN1C(=O)N(c2c(F)c(OC)cc(OC)c2F)Cc2cnc3[nH]c(CN4CCOCC4)cc3c21 [pemigatinib], for which the cell viability is 1. `CO[C@H]1/C=C/O[C@@]2(C)Oc3c(C)c(O)c4c(c3C2=O)C2=NC3(CCN(CC(C)C)CC3)NC2=C(NC(=O)/C(C)=C\C=C\[C@H](C)[C@H](O)[C@@H](C)[C@@H](O)[C@@H](C)[C@H](OC(C)=O)[C@@H]1C)C4=O` [Rifabutin] + CCN1C(=O)N(c2c(F)c(OC)cc(OC)c2F)Cc2cnc3[nH]c(CN4CCOCC4)cc3c21 [pemigatinib]: the cell viability turned out to be 0.969.

As to `CN(CCOc1ccc(NS(C)(=O)=O)cc1)CCc1ccc(NS(C)(=O)=O)cc1` [Dofetilide] + CCN1C(=O)N(c2c(F)c(OC)cc(OC)c2F)Cc2cnc3[nH]c(CN4CCOCC4)cc3c21 [pemigatinib], the cell viability amounted to 0.943.

Consider `CC(=O)N1CCN(c2ccc(OCC3COC(Cn4ccnc4)(c4ccc(Cl)cc4Cl)O3)cc2)CC1` (configuration not stated) [Ketoconazole] + CCN1C(=O)N(c2c(F)c(OC)cc(OC)c2F)Cc2cnc3[nH]c(CN4CCOCC4)cc3c21 [pemigatinib], for which the cell viability came out at 0.911. `Cc1[nH]c(/C=C2\C(=O)Nc3ccccc32)c(C)c1CCC(=O)O` [TSU-68 (SU6668, Orantinib)] + CCN1C(=O)N(c2c(F)c(OC)cc(OC)c2F)Cc2cnc3[nH]c(CN4CCOCC4)cc3c21 [pemigatinib]: the cell viability was 0.962. The value for `COc1cc(C=O)ccc1O` [Vanillin] + CCN1C(=O)N(c2c(F)c(OC)cc(OC)c2F)Cc2cnc3[nH]c(CN4CCOCC4)cc3c21 [pemigatinib] was 0.892. The value for `C1=N/C2=N/c3ccc(OCCN4CCCC4)c(c3)COC/C=C/COCc3cccc(c3)C(=C1)N2` [Pacritinib (SB1518)] + CCN1C(=O)N(c2c(F)c(OC)cc(OC)c2F)Cc2cnc3[nH]c(CN4CCOCC4)cc3c21 [pemigatinib] was 0.8.

`CNc1ncc2cc(-c3cc(NC(=O)NCCC(C)(C)C)c(F)cc3C)c(C)nc2n1` + CCN1C(=O)N(c2c(F)c(OC)cc(OC)c2F)Cc2cnc3[nH]c(CN4CCOCC4)cc3c21 [pemigatinib]: the cell viability is 0.644. Take `C#C[C@]1(O)CC[C@H]2[C@@H]3CCc4cc(OC)ccc4[C@H]3CC[C@@]21C` [Mestranol] + CCN1C(=O)N(c2c(F)c(OC)cc(OC)c2F)Cc2cnc3[nH]c(CN4CCOCC4)cc3c21 [pemigatinib]: the cell viability stood at 1.07. Next, `CC(C)NCC(O)c1ccc(NS(C)(=O)=O)cc1` (configuration not stated) [Sotalol] + CCN1C(=O)N(c2c(F)c(OC)cc(OC)c2F)Cc2cnc3[nH]c(CN4CCOCC4)cc3c21 [pemigatinib]: 0.932; `CN(C)C(=O)c1ccc(S(=O)(=O)c2ccc(NC(=O)[C@@](C)(O)C(F)(F)F)c(Cl)c2)cc1` + CCN1C(=O)N(c2c(F)c(OC)cc(OC)c2F)Cc2cnc3[nH]c(CN4CCOCC4)cc3c21 [pemigatinib]: 0.959; `CC(C)(C)NS(=O)(=O)c1cncc(-c2cc(F)c3nc(N)nn3c2)c1` + CCN1C(=O)N(c2c(F)c(OC)cc(OC)c2F)Cc2cnc3[nH]c(CN4CCOCC4)cc3c21 [pemigatinib]: 0.959. The value for `O=C(O)P(=O)(O)O` [Foscarnet Sodium] + CCN1C(=O)N(c2c(F)c(OC)cc(OC)c2F)Cc2cnc3[nH]c(CN4CCOCC4)cc3c21 [pemigatinib] was 0.907. Next, `Cc1nc(C)c(Cl)c(O)c1Cl` [Clopidol] + CCN1C(=O)N(c2c(F)c(OC)cc(OC)c2F)Cc2cnc3[nH]c(CN4CCOCC4)cc3c21 [pemigatinib]: 1.07.

On to `CCN(CC)CCCC(C)Nc1c2ccc(Cl)cc2nc2ccc(OC)cc12` (configuration not stated) [Quinacrine 2HCl] + CCN1C(=O)N(c2c(F)c(OC)cc(OC)c2F)Cc2cnc3[nH]c(CN4CCOCC4)cc3c21 [pemigatinib], for which the cell viability was determined as 0.94. Next, `N#Cc1ccc2[nH]c(O)c(-c3ccc(CN4CCOCC4)cn3)c2c1` + CCN1C(=O)N(c2c(F)c(OC)cc(OC)c2F)Cc2cnc3[nH]c(CN4CCOCC4)cc3c21 [pemigatinib]: 1.1; `Oc1ccc(Nc2nc(-c3ccc(Cl)cc3)cs2)cc1` + CCN1C(=O)N(c2c(F)c(OC)cc(OC)c2F)Cc2cnc3[nH]c(CN4CCOCC4)cc3c21 [pemigatinib]: 0.862; `COc1cc2ncnc(Nc3ccc(Cl)cc3F)c2cc1OC` + CCN1C(=O)N(c2c(F)c(OC)cc(OC)c2F)Cc2cnc3[nH]c(CN4CCOCC4)cc3c21 [pemigatinib]: 0.835. `N[C@@H]1CCCN(c2c(/C=C3\SC(=O)NC3=O)cccc2-c2ccccc2)C1` + CCN1C(=O)N(c2c(F)c(OC)cc(OC)c2F)Cc2cnc3[nH]c(CN4CCOCC4)cc3c21 [pemigatinib]: the cell viability turned out to be 0.841. The value for `CO[C@H]1C[C@@H]2CC[C@@H](C)[C@@](O)(O2)C(=O)C(=O)N2CCCC[C@H]2C(=O)O[C@H]([C@H](C)C[C@@H]2CC[C@@H](O)[C@H](OC)C2)CC(=O)[C@H](C)/C=C(\C)[C@@H](O)[C@@H](OC)C(=O)[C@H](C)C[C@H](C)/C=C/C=C/C=C/1C` [Rapamycin (Sirolimus)] + CCN1C(=O)N(c2c(F)c(OC)cc(OC)c2F)Cc2cnc3[nH]c(CN4CCOCC4)cc3c21 [pemigatinib] was 0.555; that for `CNC[C@H](O)c1cccc(O)c1` [Phenylephrine HCl] + CCN1C(=O)N(c2c(F)c(OC)cc(OC)c2F)Cc2cnc3[nH]c(CN4CCOCC4)cc3c21 [pemigatinib] was 0.885. In the case of `N[C@@H]1CN(c2c(F)cc3c(=O)c(C(=O)O)cn([C@@H]4C[C@@H]4F)c3c2Cl)CC12CC2` [Sitafloxacin Hydrate] + CCN1C(=O)N(c2c(F)c(OC)cc(OC)c2F)Cc2cnc3[nH]c(CN4CCOCC4)cc3c21 [pemigatinib], the cell viability was 1.08. The value for `Cc1nc(Nc2n[nH]c3c2CN(C(=O)N[C@H](CN(C)C)c2ccccc2)C3(C)C)c2sccc2n1` + CCN1C(=O)N(c2c(F)c(OC)cc(OC)c2F)Cc2cnc3[nH]c(CN4CCOCC4)cc3c21 [pemigatinib] was 0.498; that for `CCOc1ccn(-c2ccc(F)cc2)c(=O)c1C(=O)Nc1ccc(Oc2ccnc(N)c2Cl)c(F)c1` + CCN1C(=O)N(c2c(F)c(OC)cc(OC)c2F)Cc2cnc3[nH]c(CN4CCOCC4)cc3c21 [pemigatinib] was 0.979.

As to `CCN(CC)CCN(Cc1ccc(-c2ccc(C(F)(F)F)cc2)cc1)C(=O)Cn1c(SCc2ccc(F)cc2)nc(=O)c2c1CCC2` + CCN1C(=O)N(c2c(F)c(OC)cc(OC)c2F)Cc2cnc3[nH]c(CN4CCOCC4)cc3c21 [pemigatinib], the cell viability was 0.9. The value for `N#C[C@@H]1CCCN1C(=O)CNC12CC3CC(CC(O)(C3)C1)C2` [Vildagliptin (LAF-237)] + CCN1C(=O)N(c2c(F)c(OC)cc(OC)c2F)Cc2cnc3[nH]c(CN4CCOCC4)cc3c21 [pemigatinib] was 0.884.

(Values after the supplement of paper PMC9588766.)
